# Test results from PubChem BioAssay AID1745853 (National Center for Advancing Translational Sciences (NCATS), 2022).
# The other results are listed elsewhere or left out. Shown are side measurements of this screen, not its main read-out; they come without a call.
# How the values were obtained:
# Experiment in all cases: Primary Screen for Target Class Profiling of Small Molecule Inhibitors of Methyltransferases
# [1] = biological target: Glycine N-methyltransferase (Homo sapiens) (UniProt Q14749); conditions: purified enzyme, MTase-Glo SAH luminescence; measured here: GNMT inhibition; at 40 µM; stronger effect = lower value
# Procedure, shortened: (§1)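 Each enzyme was assayed with SAM and its substrate. SAH formation detected by MTase-Glo luminescence; single-point 40 uM screen[…].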
# [2] = biological target: Guanidinoacetate N-methyltransferase (Homo sapiens) (UniProt Q14353); conditions: purified enzyme, MTase-Glo SAH luminescence; measured here: GAMT inhibition; at 40 µM; stronger effect = lower value
# Procedure, shortened: as §1
# [3] = biological target: Histamine N-methyltransferase (Homo sapiens) (UniProt P50135); conditions: purified enzyme, MTase-Glo SAH luminescence; measured here: HNMT inhibition; at 40 µM; stronger effect = lower value
# Procedure, shortened: as §1
# [4] = biological target: Nicotinamide N-methyltransferase (Homo sapiens) (UniProt P40261); conditions: purified enzyme, MTase-Glo SAH luminescence; measured here: NNMT inhibition; at 40 µM; stronger effect = lower value
# Procedure, shortened: as §1
# [5] = biological target: Phenylethanolamine N-methyltransferase (Homo sapiens) (UniProt P11086); conditions: purified enzyme, MTase-Glo SAH luminescence; measured here: PNMT inhibition; at 40 µM; stronger effect = lower value
# Procedure, shortened: as §1
# On the % scale 0 is the no-effect control and ±100 the full control effect.
Compound,"activity change, negative = inhibition [1] [%]","activity change, negative = inhibition [2] [%]","activity change, negative = inhibition [3] [%]","activity change, negative = inhibition [4] [%]","activity change, negative = inhibition [5] [%]"
O=C(Nc1ccccc1)N1Cc2ccccc2-n2cccc2C1c1cc(F)cc(F)c1 (centres undefined),-0.513,0.736,-2.54,-4.1,-4.04
Cc1ccccc1C1c2cccn2-c2ccccc2CN1C(=O)Nc1ccc(Br)cc1 (centres undefined),7.18,0,2.54,5.74,6.46
CCCn1cc(C(=O)NC(C(=O)O)c2ccccc2C(F)(F)F)c(C)n1 (centres undefined),-4.89,-9.33,-3.46,-16.7,-21.8
COc1ccc(C2c3cccn3-c3ccccc3CN2C(=O)Nc2cc(OC)ccc2OC)cc1 (centres undefined),6.76,1.04,-1.32,0.339,5
Cc1ccc(NC(=O)N2Cc3ccccc3-n3cccc3C2c2ccc(N(C)C)cc2)cc1C (centres undefined),5.28,0,1.89,1.31,4.65
O=C(Nc1ccc(F)c(Cl)c1)N1Cc2ccccc2-n2cccc2C1c1cccs1 (centres undefined),8.79,4.98,0.073,-4.6,1.08
C[C@@H]1O[C@H](C[N+](C)(C)C)C[C@H]1O,-2.72,2.06,0.774,-8.72,0.211
CCOc1ccc(C2c3cccn3-c3ccccc3CN2C(=O)NCCCOC)cc1 (centres undefined),-4.01,4.61,1.19,-8.05,0.297
CP(=O)(O)C1=CCNCC1,-1.13,1.91,0.813,-4.84,1.84
C/C=C1/CN2CC[C@]34C(=Nc5ccccc53)[C@@H]2C[C@@H]1[C@H]4C(=O)OC,-1.14,1.99,-28.1,-10.3,-4.72
Cn1cc(C2=C(c3cn(C4CCN(Cc5ccccn5)CC4)c4ccccc34)C(=O)NC2=O)c2ccccc21,-42.2,–,-12.9,-32.8,-0.593
NC(=O)c1cc(N2CC2)c([N+](=O)[O-])cc1[N+](=O)[O-],-0.444,12.5,1.46,-3.9,8.26
COc1cccc(NC(=O)N2Cc3ccccc3-n3cccc3C2c2ccc(SC)cc2)c1 (centres undefined),2.36,0.251,4.45,-0.7,7.1
COc1ccc(C2c3cccn3-c3ccccc3CN2C(=O)Nc2cc(C)ccc2C)cc1 (centres undefined),-1.26,4.5,-2.58,-0.058,-4.56
Cc1ccccc1C1c2cccn2-c2ccccc2CN1C(=O)NCc1ccc(F)cc1 (centres undefined),16,1.23,8.16,8.49,9.09
COc1ccc(C2c3cccn3-c3ccccc3CN2C(=O)Nc2ccc(C)c(C)c2)cc1 (centres undefined),-1.64,4.8,-0.547,-3.1,-3.41
CCc1ccc(NC(=O)N2Cc3ccccc3-n3cccc3C2c2cccc(Cl)c2)cc1 (centres undefined),10.5,1.25,5.31,8.64,5.18
CCc1c(C(=O)C(N)=O)c2c(OCC(=O)OC)cccc2n1Cc1ccccc1,-5.99,-5.59,1.24,-22.4,-4.24
CCOc1ccc(NC(=O)N2Cc3ccccc3-n3cccc3C2c2ccc(CC)cc2)cc1 (centres undefined),8.38,1.76,3.5,4.41,5.31
C[C@H](CCC(=O)O)C[C@H](C)C[C@H](C)C(=O)/C=C(\O)[C@H](C)C[C@H](C)C/C=C/[C@@H](C)[C@@H](O)[C@@H](C)[C@@H](O)C[C@@H]1CC[C@@](C)([C@H]2CC[C@@](C)([C@@H](C)O)O2)O1,2.45,19.1,9.27,-3.65,2.27

Compound,"activity change, negative = inhibition [1] [%]","activity change, negative = inhibition [2] [%]","activity change, negative = inhibition [3] [%]","activity change, negative = inhibition [4] [%]","activity change, negative = inhibition [5] [%]"
CCOc1ccc(NC(=O)N2Cc3ccccc3-n3cccc3C2c2ccc(OC)cc2)cc1 (centres undefined),12.3,0,6.31,4.26,7.34
Cc1ccc(C2c3cccn3-c3ccccc3CN2C(=O)Nc2cc(C)ccc2C)cc1 (centres undefined),2.92,2.59,-8.27,-12.1,-7.07
Cc1cccc(NC(=O)N2Cc3ccccc3-n3cccc3C2c2cccs2)c1C (centres undefined),3.01,0,-3.17,-0.61,5.77
CCC1c2cccn2-c2ccccc2CN1C(=O)Nc1ccc(F)c(Cl)c1 (centres undefined),-0.412,5.11,6.96,2.56,7.87
CC(C)C1c2cccn2-c2ccccc2CN1C(=O)Nc1ccccc1Br (centres undefined),-5.25,4,-2.18,-5.39,0.849
CC(=O)O[C@H]1CN2CCC1CC2,-1.58,2.04,-45.7,-6.66,1.57
COc1ccc(C)cc1NC(=O)N1Cc2ccccc2-n2cccc2C1c1cc(F)cc(F)c1 (centres undefined),7.86,0,-1.2,4.24,5.86
C[C@@](O)(COc1ccc(C#N)cc1)C(=O)Nc1ccc(C#N)c(C(F)(F)F)c1,-1.6,4.9,7.39,-12.8,-5.65
COC(=O)c1cccc(NC(=O)N2Cc3ccccc3-n3cccc3C2c2ccc(OC)c(OC)c2)c1 (centres undefined),9.32,0,0.427,-0.374,3.37
CCOc1ccc(C2c3cccn3-c3ccccc3CN2C(=O)Nc2ccccc2C)cc1 (centres undefined),-1.7,0,11.1,9.4,6.68
COc1ccc(OC)c(NC(=O)N2Cc3ccccc3-n3cccc3C2c2ccc(SC)cc2)c1 (centres undefined),-2.77,3.59,3.43,-0.891,2.18
Cc1ccccc1C1c2cccn2-c2ccccc2CN1C(=O)NC1CCCC1 (centres undefined),6.93,0,-2.11,-7.36,6.47
CCOC(=O)c1ccc(NC(=O)N2Cc3ccccc3-n3cccc3C2c2cccs2)cc1 (centres undefined),6.12,0.357,-1.69,-1.67,4.49
CC1(N2CCC(n3c([C@@H]4CCCNC4)nc4ccccc43)CC2)CCCCCCC1,-2.31,10.1,-12.9,-11.1,-0.526
CCCNC(=O)N1Cc2ccccc2-n2cccc2C1c1ccccc1C (centres undefined),8.55,0.267,5.37,-5.29,6.86
CC1(C)C(=O)N(c2ccc(C#N)c(C(F)(F)F)c2)C(=O)N1CCCCO,4.04,6.85,12.9,-9.5,4.23
COc1ccc(C2c3cccn3-c3ccccc3CN2C(=O)Nc2cccc(SC)c2)cc1OC (centres undefined),8.69,2.13,0.18,-7.27,-0.036
CCOC(=O)C1CCC(CNC(=O)N2Cc3ccccc3-n3cccc3C2CC)CC1 (centres undefined),0.882,2.93,1.53,-8.12,-2.11
CCOc1ccccc1NC(=O)N1Cc2ccccc2-n2cccc2C1c1ccc(OC)c(OC)c1 (centres undefined),5.48,0,-3.84,-4.04,-1.56
